Assay [1] addresses HCMV C-A (Human cytomegalovirus, UniProt P16753, A143V/A209V/C138A/C202A/C84A/C87A). The assay can be described thus: Time-course inhibitor labeling by intact protein LC/MS, HCMV C-A. Type of assay: binding. The following applies: DTT quenched.
Assay [2] concerns the target HCMV C-A S225M (Human cytomegalovirus, UniProt P16753, A143V/A209V/C138A/C202A/C84A/C87A/S225M). The assay can be described thus: Time-course inhibitor labeling by intact protein LC/MS, HCMV C-A S225M dimer. Type of assay: binding. The conditions noted are these: DTT quenched.

Molecules are shown by their SMILES.

With `O=C(CCl)Cn1nnc(-c2ccccc2)c1COC(=O)NCc1ccccc1` [Compound 43, (1-(3-Chloro-2-oxopropyl)-4-phenyl-1H-1,2,3-triazol-5-yl)methyl benzylcarbamate], the “rate of labeling (kobs) HCMV C-A” value in assay [1] turned out to be 0.093 min⁻¹. Besides, in assay [2], the “rate of labeling (kobs) HCMV C-A S225M dimer” value was determined as 0.059 min⁻¹.

The values are drawn from PMC9133232 (Cell chemical biology, 2022).
